Source: PubChem BioAssay AID720709 (National Center for Advancing Translational Sciences (NCATS), 2013)
Hit rate of the full screen: of about 360,000 compounds, about 520 (0.14%) were called active. Inconclusive results, whose numbers are uncertain, are shown with a selection of clear calls. Calls come from the whole dose curve; as a rule, active = well fitted inhibition curve with a large enough effect; inconclusive = small, poorly fitted or top-dose-only effect; inactive = no such curve, though single readings can be large or run the other way. Potencies of inconclusive entries are left out as doubtful fits.

Each molecule was assayed against Rap guanine nucleotide exchange factor 3 (Homo sapiens) (UniProt O95398) (assay: qHTS for Antagonist of cAMP-regulated guanine nucleotide exchange factor 3 (EPAC1): primary screen). Settings: EPAC1 GEF assay, Rap1b-BODIPY-GDP exchange fluorescence; activity change, negative = inhibition: at 115 µM (top of the series).
Chain of UniProt O95398 (O95398 whole entry, looked up): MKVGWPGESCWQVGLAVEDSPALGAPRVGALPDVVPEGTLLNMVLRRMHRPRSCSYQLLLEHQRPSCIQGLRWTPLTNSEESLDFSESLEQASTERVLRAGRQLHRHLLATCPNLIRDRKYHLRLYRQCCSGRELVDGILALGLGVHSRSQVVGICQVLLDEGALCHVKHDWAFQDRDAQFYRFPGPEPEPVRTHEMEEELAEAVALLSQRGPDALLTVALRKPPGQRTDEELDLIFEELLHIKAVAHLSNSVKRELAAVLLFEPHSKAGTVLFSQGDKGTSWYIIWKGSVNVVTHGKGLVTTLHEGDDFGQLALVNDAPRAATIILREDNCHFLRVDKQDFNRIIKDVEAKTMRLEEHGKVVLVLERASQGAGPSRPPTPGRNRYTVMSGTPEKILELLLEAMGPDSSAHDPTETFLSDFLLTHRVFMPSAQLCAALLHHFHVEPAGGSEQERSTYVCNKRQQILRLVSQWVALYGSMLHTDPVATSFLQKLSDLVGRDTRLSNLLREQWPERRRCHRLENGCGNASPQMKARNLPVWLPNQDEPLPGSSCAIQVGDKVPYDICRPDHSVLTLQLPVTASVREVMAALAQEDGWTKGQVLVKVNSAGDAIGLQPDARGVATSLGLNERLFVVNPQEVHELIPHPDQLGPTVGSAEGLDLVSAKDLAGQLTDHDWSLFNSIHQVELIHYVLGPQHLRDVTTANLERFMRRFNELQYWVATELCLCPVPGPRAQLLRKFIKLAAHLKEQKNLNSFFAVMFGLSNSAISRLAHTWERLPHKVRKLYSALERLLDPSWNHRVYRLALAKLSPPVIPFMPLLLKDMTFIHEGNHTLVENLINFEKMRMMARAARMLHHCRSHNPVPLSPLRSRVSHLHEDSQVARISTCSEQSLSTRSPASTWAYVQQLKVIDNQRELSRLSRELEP
Note: nearly all actives have a fitted effect of over 50% in size.
Potency is the fitted concentration of half-maximal effect; tags give direction and shape of the fitted curve.
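Throughout, for activity change, negative = inhibition: plate controls were vehicle for no effect and positive control for full effect.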

Row | Compound | Potency | activity change, negative = inhibition
1 | Cc1ccc2oc(=O)c3cnn(CC(=O)NCCCOC(C)C)c3c2c1 | inconclusive [inhibitor, single point] | –
2 | c1ccc(COC2CCCN(Cc3nc(-c4cccs4)no3)C2)nc1 (stereo unspecified) | – | inactive: -2.07%
3 | Cc1cc([N+](=O)[O-])c2[nH]c(C(=O)N/N=C/c3ccccc3C(=O)O)c(-c3ccccc3)c2c1 | inconclusive [inhibitor, single point] | –
4 | Cc1oc2c(c1C(=O)c1ccccc1)C(=O)C(=O)c1ccccc1-2 | inconclusive [inhibitor, single point] | –
5 | O=C(COc1ccccc1[N+](=O)[O-])Nc1cccc(C(=O)Nc2ccccc2C(=O)O)c1 | active: 70.8 µM | –
6 | CCOc1ccccc1NC(=O)Cn1nnc(C(=O)NCc2ccc3c(c2)OCO3)c1N | inconclusive [inhibitor, partial curve] | –
7 | O=[N+]([O-])c1ccc(/C=N/NC(=S)Nc2ccccc2F)o1 | inconclusive [inhibitor, partial curve, poor fit] | –
8 | O=C(CSCC(=O)N1CCOCC1)Nc1nc(-c2ccccc2)cs1 | inconclusive [inhibitor, single point] | –
9 | Cc1cc(CNC(=O)c2cccc([N+](=O)[O-])c2)c2ccccc2n1 | inconclusive [inhibitor, partial curve] | –
10 | Cc1cccc(NC(=O)c2ccc([N+](=O)[O-])s2)n1 | inconclusive [inhibitor, partial curve, poor fit] | –
11 | Oc1ccc(-c2nc(-c3ccc(O)c(O)c3)cs2)cc1 | inconclusive [inhibitor, partial curve] | –
12 | CCCCOc1ccc(C(=O)N/C(=C/C=C/c2ccccc2)C(=O)N2CCOCC2)cc1 | inconclusive [inhibitor, partial curve] | –
13 | C/C(=N\NC(=O)c1cc(O)ccc1O)c1cccc(NC(=O)c2cccc(Cl)c2)c1 | inconclusive [inhibitor, single point] | –
14 | COc1ccc(-n2nc3c(c2NC(=O)CCl)CSC3)cc1 | inconclusive [inhibitor, partial curve] | –
15 | Cc1c(NC(=O)CSc2nnc(COc3ccccc3)n2-c2ccccc2)c(=O)n(-c2ccccc2)n1C | inconclusive [inhibitor, single point] | –
16 | CCn1c(=O)c(C(=O)Nn2c(C)nc3ccccc3c2=O)c(O)c2ccccc21 | inconclusive [inhibitor, single point] | –
17 | Cn1cnc(S(=O)(=O)N2C[C@@H](O)COC[C@@H]3O[C@H](CC(=O)NC4CCC4)CC[C@H]32)c1 | – | inactive: -13.4%
18 | CC1CCN(c2nc3nonc3nc2Nc2ccc(F)cc2)CC1 | inconclusive [inhibitor, partial curve, poor fit] | –
19 | Cc1cccnc1NC(N)=S | inconclusive [inhibitor, single point] | –
20 | COc1ccc(-c2oc3c(c2C(=O)OCCCO)C(OCCO)CCC3)cc1 (stereo unspecified) | – | inactive: -5.34%
21 | CCN(CC)S(=O)(=O)c1cccc(NC(=O)COC(=O)c2n[nH]c(=O)c3ccccc23)c1 | inconclusive [inhibitor, single point] | –
22 | CCOCCCNC(=O)CN1C(=O)c2cccc3cccc1c23 | inconclusive [inhibitor, partial curve] | –

Row | Compound | Potency | activity change, negative = inhibition
23 | COc1ccc(S(=O)(=O)N2CCN(Cc3cccc(OC)c3)CC2)cc1 | inconclusive [inhibitor, partial curve] | –
24 | O=C(c1ccc(Cl)cc1)C(CN1CCCCC1)c1ccccc1 (stereo unspecified) | inconclusive [inhibitor, partial curve] | –
25 | Cn1cnc(C(=O)NCc2ccc(CNC(=O)OC(C)(C)C)cc2)c1C(=O)NCc1ccc(CNC(=O)OC(C)(C)C)cc1 | – | inactive: -24.1%
26 | O=C(O)c1cc(-c2ccco2)nn1-c1cccc(Cl)c1 | – | inactive: -3.33%
27 | CN(CC(=O)Nc1ccccc1Br)C(=O)Cn1[nH]c(=O)c2ccccc2c1=O | – | inactive: -16.9%
28 | Cc1[nH]n(-c2ncc(-c3ccc(Cl)cc3)s2)c(=O)c1C(c1ccc(Cl)cc1)C(C#N)C#N (stereo unspecified) | active: 39.8 µM | –
29 | O=C(NCCN1CCCC1)c1ccccc1Cl | – | inactive: -9.12%
30 | Cc1ccsc1C(=O)OCC(=O)c1cc(C)n(CC2CCCO2)c1C (stereo unspecified) | inconclusive [inhibitor, single point] | –
31 | O=C(CSc1cccc2cccnc12)Nc1ccc(S(=O)(=O)N2CCOCC2)cc1 | – | inactive: -11.4%
32 | CN1/C(=C\C=C(C#N)C#N)C(C)(C)c2ccccc21 | – | inactive: -10.3%
33 | Cc1cc(Cl)ccc1OC(C)C(=O)Nc1ccc(S(=O)(=O)N2CCOCC2)cc1 (stereo unspecified) | – | inactive: -16.1%
34 | CCn1cc(CN2CCc3c([nH]c4ccccc34)C2c2cccc(OC)c2)c(C)n1 (stereo unspecified) | inconclusive [inhibitor, single point] | –
35 | COc1cc(OC)c(C2CC(=O)N3CN(c4ccc(C)cc4)CSC3=C2C#N)cc1OC (stereo unspecified) | – | inactive: -2.46%
36 | Cc1ccc([N+](=O)[O-])cc1S(=O)(=O)N1CCC(C)CC1 | inconclusive [inhibitor, partial curve] | –
37 | Cc1ccc(S(=O)(=O)NCc2ccccn2)cc1C | inconclusive [inhibitor, single point] | –
38 | O=C(NC1CCN(C(=O)Nc2cccc(F)c2)CC1)c1ccco1 | inconclusive [inhibitor, full curve, poor fit] | –
39 | COc1ccccc1C1(O)CCN(CC(=O)Nc2nc(-c3ccccc3)cs2)CC1 | inconclusive [inhibitor, single point] | –
40 | CCNC(=O)CSc1nnc(-c2ccc(OC)cc2)n1CC(C)C | inconclusive [inhibitor, partial curve] | –
41 | O=C(CSc1n[nH]c(-c2ccccc2)n1)c1ccccc1 | – | inactive: -18%
42 | O=C(Cc1ccccc1)NNc1ccc2ccccc2c1 | inconclusive [inhibitor, partial curve] | –
43 | CCOc1cc(/C=C2\SC(=S)N(Nc3ccccc3)C2=O)ccc1O | inconclusive [inhibitor, partial curve] | –
44 | CCc1nc2ccc(C(=O)NCCCN(C)C)cn2c1N(C)CCCc1ccccc1 | – | inactive: 14.1%

Row | Compound | Potency | activity change, negative = inhibition
45 | O=C(/C=C/c1ccco1)Nc1cccc(NC(=O)/C=C/c2ccco2)n1 | inconclusive [inhibitor, single point] | –
46 | CCOC(=O)C1=C(c2ccccc2)N=c2s/c(=C\c3ccc(O)cc3)c(=O)n2C1c1cccs1 (stereo unspecified) | – | inactive: 5.93%
47 | COc1cc(/C=N/NC(=O)c2cccnc2)ccc1OC(=O)c1cc(OC)c(OC)c(OC)c1 | inconclusive [inhibitor, partial curve, poor fit] | –
48 | NC(Cc1ccc(F)cc1)c1csc(NC(=O)NC(c2ccccc2)c2ccccc2)n1 (stereo unspecified) | – | inactive: -13.6%
49 | CC(CN1C(C)CCCC1C)OC(=O)c1ccc(F)cc1 (stereo unspecified) | inconclusive [inhibitor, full curve, poor fit] | –
50 | Cc1ccc(CN(Cc2cc3cc4c(cc3[nH]c2=O)OCCO4)Cc2nnnn2Cc2ccco2)cc1 | inconclusive [inhibitor, single point] | –
51 | Cc1ccc(S(=O)(=O)NCCC(c2ccccc2)c2ccco2)cc1 (stereo unspecified) | inconclusive [inhibitor, single point] | –
52 | CCOC(=O)c1cccc(NC(=O)C(NS(=O)(=O)c2ccc3c(c2)CCN3C(C)=O)C(C)C)c1 (stereo unspecified) | inconclusive [inhibitor, single point] | –
53 | CCOC(=O)CN1CC23C=CC(O2)C(C(=O)NC2CCCCCC2)C3C1=O (stereo unspecified) | – | inconclusive: -9.63% [inhibitor]
54 | O=C(NCc1ccccc1Cl)c1ccc(CSc2nc3ccncc3[nH]2)cc1 | inconclusive [inhibitor, partial curve, poor fit] | –
55 | C=CCn1c(=O)/c(=C/c2cc(OC)c(OC)c(OC)c2)s/c1=C(/C#N)c1nc2ccccc2n1C | inconclusive [inhibitor, full curve, poor fit] | –
56 | O=C1CC(=O)N(CCc2ccccc2)C(=O)N1CCc1ccccc1 | inconclusive [inhibitor, partial curve] | –
57 | CN(C)C(CNC(=O)CCc1c[nH]c2ccccc12)c1ccccc1 (stereo unspecified) | inconclusive [inhibitor, partial curve, poor fit] | –
58 | CCCCN(CC)Cc1ccc(CNC(=S)Nc2ccccc2F)o1 | inconclusive [inhibitor, single point] | –
59 | COc1ccc(/C=N/NC(=O)c2ccc(COc3cccc4cccnc34)cc2)cc1O | inconclusive [inhibitor, full curve, poor fit] | –
60 | COC(=O)[C@]12CCCCC=C1N(CCc1ccc(OC)c(OC)c1)C(=O)[C@H](CC(=O)NCC1CCCCC1)C2 | – | inactive: -21.4%
61 | O=C(O)C(c1ccccc1)N1C(=O)/C(=C\c2ccc(-c3cccc(Cl)c3)o2)SC1=S (stereo unspecified) | inconclusive [inhibitor, full curve] | –
62 | CCn1c(CNC(C)=O)nnc1SCC(=O)c1ccc(Br)cc1 | – | inactive: -1.61%
63 | COC(=O)CCC(=O)Nc1cc(Cl)cc(Cl)c1 | inconclusive [inhibitor, partial curve] | –
64 | NS(=O)(=O)c1ccc(N=Nc2c[nH]c(=O)c(O)c2)cc1 | inconclusive [inhibitor, partial curve] | –
65 | CCCCN(Cc1ccccc1)c1ncnc2nc[nH]c12 | – | inactive: -9.56%
66 | Cc1ccc(NC(=O)C(=O)NCCCN2CCCC2=O)cc1 | inconclusive [inhibitor, single point] | –
